# This is one part of the list.
# How the values were obtained:
# HSkMC = human skeletal muscle cells; experiment: cytotoxicity call (relative viability < 0.9); conditions: 10 µM
# HepG2 = experiment: cytotoxicity call (relative viability < 0.9); conditions: 10 µM
# S. aureus RN4220 = experiment: growth inhibition call (relative growth <= 0.2); conditions: 50 µM
Structure (SMILES),cytotoxicity call (HSkMC),cytotoxicity call (HepG2),growth inhibition call (S. aureus RN4220)
NC1(C(=O)N2CCCN(S(=O)(=O)c3ccccc3)CC2)Cc2ccccc2C1,inactive,inactive,inactive
CNC[C@@H]1OCCCC[C@@H](C)Oc2ccc(NC(=O)Nc3cccc4ccccc34)cc2C(=O)N([C@@H](C)CO)C[C@H]1C,inactive,inactive,inactive
NC(=O)CC(N)=S,inactive,inactive,inactive
CO[C@H]1CN(C)C(=O)c2cc(NC(=O)Nc3ccc(Cl)cc3)ccc2OC[C@@H](C)N(C(=O)Nc2c(C)noc2C)C[C@H]1C,inactive,inactive,inactive
C[C@@H]1CCCCO[C@@H](CN(C)C(=O)Nc2ccc3c(c2)OCO3)[C@@H](C)CN([C@H](C)CO)C(=O)c2cc(NC(=O)Nc3ccc4c(c3)OCO4)ccc2O1,inactive,inactive,inactive
C[C@H]1CN([C@@H](C)CO)C(=O)c2c(c3ccccc3n2C)-c2ccccc2CO[C@H]1CN(C)C(=O)Nc1ccc(F)cc1,inactive,inactive,inactive
CN1C(=O)CC(c2ccccc2)C1=O (stereo not given),inactive,inactive,inactive
Cc1ccc(S[C@]2(C(=O)NCc3ccccc3)CC(=O)N(Cc3cc(C(F)(F)F)cc(C(F)(F)F)c3)[C@@H]2c2ccc(CO)cc2I)cc1,inactive,inactive,inactive
Nc1ncnc2c1ncn2[C@H]1O[C@@H](CO)[C@H](O)[C@@H]1O,inactive,inactive,inactive
C[C@@H]1CCCCO[C@@H](CN(C)S(C)(=O)=O)[C@H](C)CN([C@@H](C)CO)C(=O)c2cc(NC(=O)CCCN(C)C)ccc2O1,inactive,inactive,inactive
COc1ccc2c3c([nH]c2c1)[C@H](CO)N(C[C@]13CCN(CC1)C(=O)Nc1cccc(c1)F)C(=O)c1ccccc1,inactive,inactive,inactive
C[C@H](CO)N1C[C@H](C)[C@@H](CN(C)C(=O)C2CCOCC2)Oc2cc(-c3ccc(F)cc3)ccc2S1(=O)=O,inactive,inactive,inactive
COc1ccc(S(=O)(=O)Nc2ccc3c(c2)C(=O)N([C@@H](C)CO)C[C@H](C)[C@@H](CN(C)C(=O)Nc2c(C)noc2C)O3)cc1,inactive,inactive,inactive
C[C@@H]1CCCCO[C@@H](CN(C)C(=O)Nc2ccc(C(F)(F)F)cc2)[C@@H](C)CN([C@H](C)CO)C(=O)c2cc(NC(=O)CCC(F)(F)F)ccc2O1,inactive,inactive,inactive
O=C(C[C@H]1CC[C@H]2[C@@H](COC[C@H](O)CN2C(=O)Nc2ccc(Cl)cc2)O1)NC1Cc2ccccc2C1,inactive,inactive,active
C[C@H]1CN([C@@H](C)CO)C(=O)c2cc(NC(=O)Nc3ccc4c(c3)OCO4)ccc2O[C@H]1CN(C)S(C)(=O)=O,inactive,inactive,inactive
COCCOC(=O)N1C(=O)[C@@]2(c3cc(C#CCNC(N)=O)ccc31)[C@H](c1ccccc1OCCO)N1[C@H](c3ccccc3)[C@H](c3ccccc3)OC(=O)[C@H]1[C@@H]2C(N)=O,inactive,inactive,inactive
C[C@H]1CN([C@@H](C)CO)C(=O)Cc2cc(NC(=O)CCN3CCOCC3)ccc2O[C@H]1CN(C)S(=O)(=O)c1cn(C)cn1,inactive,inactive,inactive
CC/1=C(CCC(=O)O)/C/2=C/c3[nH]c(c(c3CCC(=O)O)C)/C=C/3\N=C(/C=C/4\N=C(\C=C1/N2)C(=C4C)C=C)C(=C3C)C=C,inactive,active,inactive
Cc1cnc(C(=O)O)c[n+]1[O-],inactive,inactive,inactive
C[C@H]1CN([C@@H](C)CO)C(=O)Cc2cc(NS(=O)(=O)c3cn(C)cn3)ccc2O[C@@H]1CN(C)S(=O)(=O)c1cn(C)cn1,inactive,inactive,inactive
C=CCNC(=O)[C@@H]1[C@H]2C(=O)O[C@H](c3ccccc3)[C@H](c3ccccc3)N2[C@H](c2ccc(OCCO)cc2)[C@@]12C(=O)Nc1ccc(C#CC3=CCCCC3)cc12,inactive,inactive,inactive
C[C@H](CO)N1C[C@H](C)[C@H](CN(C)Cc2ccc(C(=O)Nc3ccccc3N)cc2)Oc2ccc(NC(=O)Cn3cnnn3)cc2C1=O,inactive,inactive,inactive
CN1C(=O)c2cc(NC(=O)c3cnccn3)ccc2OC[C@@H]2O[C@H](CC(=O)N[C@@H]3CCN(Cc4ccccc4)C3)CC[C@H]21,inactive,inactive,inactive
COc1ccc(NC(=O)Nc2cccc3c2O[C@H](CN(C)Cc2ccc(C(F)(F)F)cc2)[C@@H](C)CN([C@H](C)CO)C3=O)cc1,inactive,inactive,inactive

# Source: the antibiotic and cytotoxicity screens of Wong et al. (2023)
